Experimental data as given in PMC4336329 (PLoS ONE, 2015).
The campaign covered roughly 310,000 compounds. About 14,000 (4.5%) showed an effect of 50% or more. Effects have a minus sign here. Some of the results follow.

These molecules were tested against human ether-à-go-go-related gene (hERG) potassium channel (human, UniProt Q12809) (assay: primary screen, population patch clamp on CHO cells stably expressing hERG).
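Note: peak tail current of the secondary pulse compared with the same well before compound.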

Sequence of human ether-à-go-go-related gene (hERG) potassium channel (Q12809 whole entry, looked up): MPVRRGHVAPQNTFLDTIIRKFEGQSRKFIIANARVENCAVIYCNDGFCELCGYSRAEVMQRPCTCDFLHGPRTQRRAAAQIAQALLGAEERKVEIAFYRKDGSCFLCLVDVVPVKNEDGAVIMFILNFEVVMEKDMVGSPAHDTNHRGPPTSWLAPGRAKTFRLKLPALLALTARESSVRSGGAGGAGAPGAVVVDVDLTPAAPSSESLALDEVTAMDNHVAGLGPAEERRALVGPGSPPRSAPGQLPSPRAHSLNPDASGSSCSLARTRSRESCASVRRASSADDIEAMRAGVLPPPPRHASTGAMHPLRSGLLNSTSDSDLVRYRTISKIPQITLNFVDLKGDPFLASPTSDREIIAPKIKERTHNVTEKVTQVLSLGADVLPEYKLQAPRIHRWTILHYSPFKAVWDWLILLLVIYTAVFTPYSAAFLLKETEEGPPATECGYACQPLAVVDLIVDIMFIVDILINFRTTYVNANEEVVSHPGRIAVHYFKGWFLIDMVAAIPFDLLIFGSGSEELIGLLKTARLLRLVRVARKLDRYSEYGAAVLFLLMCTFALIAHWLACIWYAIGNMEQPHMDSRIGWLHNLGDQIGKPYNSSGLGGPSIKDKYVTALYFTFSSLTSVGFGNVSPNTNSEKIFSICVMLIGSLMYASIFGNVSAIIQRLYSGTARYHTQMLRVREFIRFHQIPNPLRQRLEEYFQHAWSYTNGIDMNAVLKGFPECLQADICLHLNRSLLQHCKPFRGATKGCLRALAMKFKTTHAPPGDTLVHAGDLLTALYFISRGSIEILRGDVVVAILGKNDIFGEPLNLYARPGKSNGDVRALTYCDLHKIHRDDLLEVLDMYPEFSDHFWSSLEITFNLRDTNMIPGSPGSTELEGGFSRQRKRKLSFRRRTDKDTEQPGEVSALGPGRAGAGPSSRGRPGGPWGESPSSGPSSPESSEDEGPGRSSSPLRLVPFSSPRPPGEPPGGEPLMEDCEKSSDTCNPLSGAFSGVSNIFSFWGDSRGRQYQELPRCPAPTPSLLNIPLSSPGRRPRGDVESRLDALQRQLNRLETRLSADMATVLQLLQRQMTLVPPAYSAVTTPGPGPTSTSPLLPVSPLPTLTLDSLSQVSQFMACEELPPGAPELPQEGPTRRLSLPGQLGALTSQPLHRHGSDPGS

**Q.** Which “hERG current change (%, negative = inhibition) at 10uM” value does the source give for `O=C(Nc1ccc(NC(=O)c2ccccc2F)cn1)c1ccco1` here?
**A.** 8.52%

**Q.** How did the “hERG current change (%, negative = inhibition) at 10uM” value turn out when `CN(C)Cc1c(C(=O)N/N=C/c2cccc(OCc3ccc(F)cc3)c2)nnn1-c1nonc1N` was run?
**A.** 19.7%

**Q.** `O=Nc1c(O)n(Cc2ccccc2)c2ccccc12` was tested. Which “hERG current change (%, negative = inhibition) at 10uM” value did it give?
**A.** -18.7%

**Q.** Which “hERG current change (%, negative = inhibition) at 10uM” value does the source give for `OCCC1CN(Cc2ccon2)CCN1Cc1ccccc1` (stereo not shown) here?
**A.** 9.42%

**Q.** For `O=C(CSc1ccccc1)NCCCN1CCOCC1`, which “hERG current change (%, negative = inhibition) at 10uM” value is on record?
**A.** 6.79%

**Q.** How did the “hERG current change (%, negative = inhibition) at 10uM” value turn out when `Cc1ccsc1C(=O)OCC(=O)Nc1cccc(S(=O)(=O)N2CCOCC2)c1` was run?
**A.** -45.1%

**Q.** Which “hERG current change (%, negative = inhibition) at 10uM” value does the source give for `CCOC(=O)c1ccc(NC(=O)c2nc[nH]c2C(=O)NC)cc1` here?
**A.** 16.6%

**Q.** `Cc1ccc(CNC(=O)c2ccc([N+](=O)[O-])o2)cc1` was tested. Which “hERG current change (%, negative = inhibition) at 10uM” value did it give?
**A.** -1.48%

**Q.** For `Nc1ccc(C(=O)Nc2nccs2)cc1`, which “hERG current change (%, negative = inhibition) at 10uM” value is on record?
**A.** 22.4%

**Q.** For `CCOc1ccc(OCC)c(NC(=O)CN2CCN(C(=O)c3ccco3)CC2)c1`, which “hERG current change (%, negative = inhibition) at 10uM” value is on record?
**A.** -59%

**Q.** For `CCOC(=O)c1c(NC(=O)c2cccnc2)sc(C)c1C`, which “hERG current change (%, negative = inhibition) at 10uM” value is on record?
**A.** -12.1%

**Q.** Which “hERG current change (%, negative = inhibition) at 10uM” value does the source give for `CN(C)c1oc(/C=C/c2cccs2)nc1S(=O)(=O)c1ccccc1` here?
**A.** -2.69%

**Q.** `Cc1ccccc1NC(=O)CSc1nnnn1C` was tested. Which “hERG current change (%, negative = inhibition) at 10uM” value did it give?
**A.** 6.94%

**Q.** Which “hERG current change (%, negative = inhibition) at 10uM” value does the source give for `CC(=O)c1cccc(OCc2cc(C(=O)N3CC4C[C@@H]5CC3C[C@H](C4)C5)no2)c1` here?
**A.** 1.43%

**Q.** For `Nc1nc(COc2ccc(F)cc2Cl)nc(N2CCCCC2)n1`, which “hERG current change (%, negative = inhibition) at 10uM” value is on record?
**A.** 7.88%

**Q.** How did the “hERG current change (%, negative = inhibition) at 10uM” value turn out when `COc1cccc(-c2csc(N3CCN(C(=S)Nc4ccc(Cl)cc4)CC3)n2)c1` was run?
**A.** 6.14%

**Q.** For `Oc1ccc(-c2csc(Nc3ccccn3)n2)cc1`, which “hERG current change (%, negative = inhibition) at 10uM” value is on record?
**A.** 13%

**Q.** `O=c1cc(-c2ccccc2)nc(SCc2ccc(F)cc2)[nH]1` was tested. Which “hERG current change (%, negative = inhibition) at 10uM” value did it give?
**A.** 3.26%

**Q.** Which “hERG current change (%, negative = inhibition) at 10uM” value does the source give for `CCn1c(SCc2ccc([N+](=O)[O-])cc2)nnc1C(C)NC(=O)c1ccc(C)cc1` (stereo not shown) here?
**A.** -33.6%

**Q.** Which “hERG current change (%, negative = inhibition) at 10uM” value does the source give for `CSC1=C(C#N)C(c2ccc(C)s2)CC(=O)N1` (stereo not shown) here?
**A.** -10.5%

**Q.** With `COc1ccc(CC(=O)Nc2ccc(NC(=O)c3ccc(Br)cc3)cc2)cc1OC` as the molecule, how does the “hERG current change (%, negative = inhibition) at 10uM” value read?
**A.** 20.1%

**Q.** For `O=C(c1cc(=O)c2ccccc2o1)N(Cc1ccccc1)C1CCS(=O)(=O)C1` (stereo not shown), which “hERG current change (%, negative = inhibition) at 10uM” value is on record?
**A.** -13.9%

**Q.** With `Cc1ccc(CSCCC(=O)NCCc2ccc(Cl)cc2)cc1` as the molecule, how does the “hERG current change (%, negative = inhibition) at 10uM” value read?
**A.** -9.69%

**Q.** How did the “hERG current change (%, negative = inhibition) at 10uM” value turn out when `Cc1cc(C)cc(N(C(=O)c2csnn2)C(C(=O)NC2CCCCC2)c2cccnc2)c1` (stereo not shown) was run?
**A.** 4.35%

**Q.** How did the “hERG current change (%, negative = inhibition) at 10uM” value turn out when `FC(F)(F)c1cc(-c2ccco2)nc(N2CCN(c3ccccc3)CC2)n1` was run?
**A.** 1.67%

**Q.** How did the “hERG current change (%, negative = inhibition) at 10uM” value turn out when `CCNC(=S)NCc1ccc(OC)c(OC)c1` was run?
**A.** 24%

**Q.** Which “hERG current change (%, negative = inhibition) at 10uM” value does the source give for `COc1ccc(C)cc1NC(=O)C(=O)NNC(=O)COc1ccc(Cl)cc1` here?
**A.** 29.3%

**Q.** How did the “hERG current change (%, negative = inhibition) at 10uM” value turn out when `c1csc(-c2nc(N3CCCCC3)no2)c1` was run?
**A.** 20.6%

**Q.** Which “hERG current change (%, negative = inhibition) at 10uM” value does the source give for `CC(C)S(=O)(=O)c1csc(C(=O)NN)c1Cl` here?
**A.** 3.46%

**Q.** With `O=C(CN1N=C(c2ccccc2)CCC1=O)NCCCN1CCc2ccccc2C1` as the molecule, how does the “hERG current change (%, negative = inhibition) at 10uM” value read?
**A.** -49.6%

**Q.** For `O=C(c1c(F)cccc1F)N1CCCc2ccccc21`, which “hERG current change (%, negative = inhibition) at 10uM” value is on record?
**A.** 12%

**Q.** With `Cc1ccccc1OCCC(=O)Nc1ccc(S(=O)(=O)N(C)C2CCN(C)CC2)cc1` as the molecule, how does the “hERG current change (%, negative = inhibition) at 10uM” value read?
**A.** 30%

**Q.** With `COc1ccc(CC(=O)N(C)Cc2ccc(C(C)(C)C)cc2)cc1S(=O)(=O)N1CCOCC1` as the molecule, how does the “hERG current change (%, negative = inhibition) at 10uM” value read?
**A.** -33.6%

**Q.** Which “hERG current change (%, negative = inhibition) at 10uM” value does the source give for `Cc1nc(-c2ccc(Cl)cc2)sc1C(=O)CBr` here?
**A.** -1.74%

**Q.** How did the “hERG current change (%, negative = inhibition) at 10uM” value turn out when `CCCCN(C)C(=O)c1cc2c(Cl)nc3ccccc3c2s1` was run?
**A.** -4.12%

**Q.** Which “hERG current change (%, negative = inhibition) at 10uM” value does the source give for `Cc1ccc(S(=O)(=O)NCC(=O)N(CC(=O)NC2CCCCC2)CC2CCCO2)cc1` (stereo not shown) here?
**A.** -7.55%

**Q.** For `COc1cc(NC(=S)N2CCCCC2C)c(OC)cc1Cl` (stereo not shown), which “hERG current change (%, negative = inhibition) at 10uM” value is on record?
**A.** -5.01%

**Q.** How did the “hERG current change (%, negative = inhibition) at 10uM” value turn out when `Cc1cc(NC(=O)CSc2nc3ccccc3c(=O)n2CCCC(=O)NCc2ccco2)n[nH]1` was run?
**A.** -7%

**Q.** For `CCn1c(C(O)c2ccccc2)nc2ccccc21` (stereo not shown), which “hERG current change (%, negative = inhibition) at 10uM” value is on record?
**A.** -22.7%

**Q.** How did the “hERG current change (%, negative = inhibition) at 10uM” value turn out when `COC(=O)CCC/C=C1\SC[C@@H](NC(=O)c2ccccc2)C1NC(C)=O` (stereo partly shown) was run?
**A.** 8.46%

**Q.** How did the “hERG current change (%, negative = inhibition) at 10uM” value turn out when `CC(=O)NCCC(=O)N(Cc1ccccc1)c1nc2c(C)cccc2s1` was run?
**A.** -57.4%

**Q.** Which “hERG current change (%, negative = inhibition) at 10uM” value does the source give for `CCC1C(=O)N=C(SCC(=O)Nc2ccc(C)cc2)N(c2ccccc2)C1=O` (stereo not shown) here?
**A.** 19.4%

**Q.** For `CC1(C)CC(C(CCN(Cc2ccccc2)C(=O)c2ccco2)c2ccc(F)cc2)CCO1` (stereo not shown), which “hERG current change (%, negative = inhibition) at 10uM” value is on record?
**A.** -10.4%

**Q.** `O=C(CSc1n[nH]c(=O)[nH]c1=O)Nc1ccc(C(=O)O)cc1` was tested. Which “hERG current change (%, negative = inhibition) at 10uM” value did it give?
**A.** 14.9%

**Q.** `c1cncc(-c2nc(NCc3cccs3)c3ccccc3n2)c1` was tested. Which “hERG current change (%, negative = inhibition) at 10uM” value did it give?
**A.** 8.45%

**Q.** With `Cl.c1ccc(CNc2nc3ccccc3n2CCN2CCOCC2)nc1` as the molecule, how does the “hERG current change (%, negative = inhibition) at 10uM” value read?
**A.** -15.5%

**Q.** How did the “hERG current change (%, negative = inhibition) at 10uM” value turn out when `COc1ccccc1NC(=O)COn1nnc2ccc(S(=O)(=O)N3CCOCC3)cc21` was run?
**A.** 4.92%

**Q.** Which “hERG current change (%, negative = inhibition) at 10uM” value does the source give for `COc1cc(C(=S)N2CCOCC2)ccc1OC(=O)c1cc(OC)c(OC)c(OC)c1` here?
**A.** 21.8%

**Q.** With `COc1ccc(NC(=O)C2CCCCN2S(=O)(=O)c2ccc(F)cc2)c(OC)c1` (stereo not shown) as the molecule, how does the “hERG current change (%, negative = inhibition) at 10uM” value read?
**A.** -5.05%

**Q.** Which “hERG current change (%, negative = inhibition) at 10uM” value does the source give for `Cc1cccc(C(=O)NC(=O)Nc2c(C)cc(C)nc2C)c1` here?
**A.** 12.4%

**Q.** With `COc1ccccc1NC(=O)CSc1ccc2nnc(-c3ccccn3)n2n1` as the molecule, how does the “hERG current change (%, negative = inhibition) at 10uM” value read?
**A.** 0.136%

**Q.** How did the “hERG current change (%, negative = inhibition) at 10uM” value turn out when `COc1ccc(C(=O)Nc2ccncc2)c(OC)c1` was run?
**A.** 5.73%

**Q.** Which “hERG current change (%, negative = inhibition) at 10uM” value does the source give for `COc1cc(OC)cc(C(=O)NCCNC(=O)c2ccco2)c1` here?
**A.** -11.4%

**Q.** Which “hERG current change (%, negative = inhibition) at 10uM” value does the source give for `COc1ccccc1-c1c(NC(=O)c2ccco2)n(C)c2ccccc2c1=O` here?
**A.** -3.33%

**Q.** Which “hERG current change (%, negative = inhibition) at 10uM” value does the source give for `c1ccc(-c2nnnn2-c2ccccc2)cc1` here?
**A.** 12.3%

**Q.** How did the “hERG current change (%, negative = inhibition) at 10uM” value turn out when `O=C(O)Cn1c(O)c(C=Nc2ccccc2)sc1=S` [4242532] was run?
**A.** 14.1%

**Q.** With `COc1ccc(C(=O)c2ccc(N(C)C)cc2)c2ccccc12` as the molecule, how does the “hERG current change (%, negative = inhibition) at 10uM” value read?
**A.** -3.44%

**Q.** `CC1(C)CC2CC(C)(CN2C(=O)c2ccc([N+](=O)[O-])cc2)C1` (stereo not shown) was tested. Which “hERG current change (%, negative = inhibition) at 10uM” value did it give?
**A.** -62.4%
